Assay results reported in the supplement of paper PMC4604168 (melanoma cell lines).
The list shows a part of the results. Most values come without repeats; read them as rough.

Key:
Assay in all cases: cell count relative to DMSO control; melanoma cells; higher = more viable cells
Details in all cases: library dose: standard library concentration; 72 h
501Mel = test system: 501Mel
A101D = test system: A101D
A2058 = test system: A2058
A375 = test system: A375
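Note: cells treated in 1,536-well plates, then fixed and DAPI-stained, with nuclei counted from automated high-throughput microscope images.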

SMILES	cell count (501Mel) [%]	cell count (A101D) [%]	cell count (A2058) [%]	cell count (A375) [%]
C/C(O)=C(\C#N)C(=O)Nc1cc(Br)ccc1Br + Oc1nc(-c2ccc(C(F)(F)F)cc2)nc2c1CSCC2 [XAV939] (first compound 10 µM, partner dose 10 µM)	98	91.7	72.4	94.4
C[C@]1(O)C[C@@H](c2nc(-c3ccc4ccc(-c5ccccc5)nc4c3)c3c(N)nccn32)C1 + Cc1cc(SCc2sc(-c3ccc(C(F)(F)F)c(F)c3)nc2C)ccc1OCC(=O)O [GW0742] (first compound 2 µM, partner dose 10 µM)	69.6	104	86.7	67
Cc1ccc(NC(=O)c2cccc(N(C)C)c2)cc1NC(=O)c1ccc(O)cc1 + Cc1cc(SCc2sc(-c3ccc(C(F)(F)F)c(F)c3)nc2C)ccc1OCC(=O)O [GW0742] (first compound 10 µM, partner dose 10 µM)	61.5	108	123	113
CCc1ccc(CCOc2ccc(CC3SC(=O)NC3=O)cc2)nc1 (centres undefined) [pioglitazone] + Cc1cc(SCc2sc(-c3ccc(C(F)(F)F)c(F)c3)nc2C)ccc1OCC(=O)O [GW0742] (first compound 10 µM, partner dose 10 µM)	76.7	95.3	115	79.5
CC[C@]1(O)C[C@H]2CN(CCc3c([nH]c4ccccc34)[C@@](C(=O)OC)(c3cc4c(cc3OC)N(C=O)[C@H]3[C@@](O)(C(=O)OC)[C@H](OC(C)=O)[C@]5(CC)C=CCN6CC[C@]43[C@@H]65)C2)C1 [vincristine] + C/C(O)=C(\C#N)C(=O)Nc1cc(Br)ccc1Br [LFM-A13] (first compound 0.0005 µM, partner dose 10 µM)	48.5	36.1	7.16	73.2
CC(C)(C)c1cnc(CSc2cnc(NC(=O)C3CCNCC3)s2)o1 + Cc1cc(SCc2sc(-c3ccc(C(F)(F)F)c(F)c3)nc2C)ccc1OCC(=O)O [GW0742] (first compound 0.05 µM, partner dose 10 µM)	71.3	87.8	82.6	93.6
